PubChem BioAssay AID720542 (National Center for Advancing Translational Sciences (NCATS), 2013)
The whole screen tested about 360,000 compounds, of which about 740 (0.21%) were called active. The shares of active, inactive and inconclusive entries below differ from those in the screen. Calls follow the shape of the dose curve; as a rule, active = well fitted inhibition curve with a large enough effect; inconclusive = small, poorly fitted or top-dose-only effect; inactive = no such curve, though single readings can be large or run the other way. No potency is given beside an inconclusive call; the fits are too rough.

The molecules below were run on Plasmodium falciparum AMA1 (3D7) - RON2 peptide interaction (assay: qHTS for Inhibitors of AMA1-RON; Towards Development of Antimalarial Drug Lead: Primary Screen). Conditions: AlphaScreen AMA1-biotinylated RON2 peptide binding; activity change, negative = inhibition: at 58.2 µM (top of the series) unless noted.
How it was run: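 AMA1 (3D7) with his tag at 25 nM final met compounds first, then biotinylated RON2 peptide at 25 nM; detection used donor plus acceptor beads, 10 µg/mL apiece, read by AlphaScreen after 30 min at room temperature.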
Also: nearly all actives have a fitted effect of over 45% in size.
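For activity change, negative = inhibition in this document: 0% = vehicle wells and -100% = peptide control.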
Potency is read from the fitted curve at half-maximal effect; tags tell the direction and shape of the fitted curve.

SMILES | Potency | activity change, negative = inhibition
Oc1ccccc1/C=C/c1noc(-c2ccccc2O)n1 | inactive | –
Nc1nonc1-n1nnc(C(=O)N/N=C/c2ccccc2Cl)c1CN1CCOCC1 | inactive | –
CCN(CC(=O)Nc1ccc(NC(C)=O)cc1)CC(=O)Nc1ccc(Cl)c(Cl)c1 | inconclusive [inhibitor, single point] | –
CCOC(=O)c1c(C)[nH]c(N=Nc2ccccc2C)c1C | inconclusive [inhibitor, single point] | –
CCOc1ccc(CNC(=O)c2cc3oc4ccccc4c3n2C)cc1 | inactive | –
CCCCCc1cc(=O)oc2c(C(CCN3CCN(c4ccccc4)CC3)c3ccc(N(C)C)cc3)c(OC)cc(OC)c12 (centres undefined) | active: 11.2 µM | –
O=C(CSc1nnc(-c2cnccn2)n1Cc1ccco1)c1ccc(Cl)cc1 | inconclusive [inhibitor, single point] | –
COc1ccc(CNc2ncc(-c3ccc(Cl)cc3)n2C)c(OC)c1OC | inconclusive [inhibitor, single point] | –
O=[N+]([O-])c1cccc(C=NN2CCCCCC2)c1 | active: 17.8 µM | –
CC(C)(C)NC(=O)C(c1cccs1)N(CC1CCCO1)C(=O)c1ccc(-c2ccccc2)[nH]1 (centres undefined) | inconclusive [inhibitor, single point] | –
COc1ccc(C2N(c3ccc(C)cc3)CCN2c2ccc(C)cc2)cc1O | inconclusive [inhibitor, partial curve, poor fit] | –
C[C@H](O)[C@@H]1CN2CCc3c([nH]c4ccc(-c5ccc6c(c5)OCO6)cc34)[C@@H]2C[C@@H]1N(C)C(=O)Nc1ccc(F)cc1 | inconclusive [inhibitor, single point] | –
Cc1nn(-c2ccccc2)c(C)c1/C=N/NC(=O)c1cc(-c2cccs2)[nH]n1 | inactive | –
CCCCn1nnnc1C1(C)CCC(=O)N1CCCn1ccnc1 (centres undefined) | inconclusive [inhibitor, single point] | –
Cc1ccc(N=Nc2c(C)[nH]n(-c3ccccc3)c2=O)c(C)c1 | inconclusive [inhibitor, partial curve] | –
O=C(Nc1ccc2nc(-c3ccccn3)[nH]c2c1)C1CCCCC1 | inactive | –
COc1ccc(N2CCN(C(=O)c3oc4ccccc4c3NC(=O)Cc3ccc(OC)c(OC)c3)CC2)cc1 | inconclusive [inhibitor, partial curve] | –
Cc1cc(C)n(S(=O)(=O)c2cc(Cl)ccc2Cl)n1 | inactive | –
CC(NC(=O)Cc1ccc(S(=O)(=O)N2CCOCC2)s1)c1ccc(Br)cc1 (centres undefined) | – | inactive: -5.47% [at 11.6 µM]
N#Cc1ccccc1NC(=S)NC(=O)c1cccnc1 | inactive | –
CN(O)/C=C1\C(=O)Nc2ccccc21 | inconclusive [inhibitor, single point] | –
CC(Oc1ccccc1)C(=O)Nc1nnc(S(=O)(=O)Nc2ccccc2)s1 (centres undefined) | inactive | –
CN(CC(=O)Nc1ccc2c(c1)OCCO2)S(=O)(=O)c1ccc(F)cc1 | inactive | –
CC(CC(=O)OCC(=O)NCc1ccc(Cl)cc1)c1ccccc1 (centres undefined) | inactive | –
CN1CCN(c2ccc(CNC(=O)c3ccc(-c4ccc(F)c(F)c4)c4ccoc34)cc2)CC1 | inconclusive [inhibitor, partial curve] | –

SMILES | Potency | activity change, negative = inhibition
COc1ccc(N2CCN(C(CNS(=O)(=O)c3ccc4c(c3)OCCO4)c3ccco3)CC2)cc1 (centres undefined) | inconclusive [inhibitor, partial curve] | –
COc1cccc(/C=N/NC(=O)C(=O)N/N=C/c2cccc(OC)c2O)c1O | inconclusive [inhibitor, partial curve] | –
Cc1ccc(NC(=O)CC2OC(=O)c3ccccc32)cc1S(=O)(=O)N1CCOCC1 (centres undefined) | inactive | –
Nc1ccc(Nc2ccccc2)cc1 | inconclusive [inhibitor, single point] | –
CCS(=O)(=O)N1CCCC(c2nc(-c3cccc(OC)c3)no2)C1 (centres undefined) | inactive | –
Cc1ccc(S(=O)(=O)/N=C2\C=C(Nc3cccc(C(=O)O)c3)C(=O)c3ccccc32)c(C)c1 | inconclusive [inhibitor, single point] | –
O=C(Nc1ccccc1N1CCCCC1)c1ccc(Cl)c([N+](=O)[O-])c1 | inconclusive [inhibitor, single point] | –
O=Cc1ccc2oc3nc4n(c(=O)c3c(=O)c2c1)CCCS4 | inconclusive [inhibitor, partial curve] | –
Cc1cccc(OCCCN2C(=O)C(=O)c3cc(C)ccc32)c1 | inconclusive [inhibitor, single point] | –
O=C(CCOc1ccccc1)Nc1ccc([N+](=O)[O-])cc1 | inconclusive [inhibitor, partial curve] | –
COc1ccc(C(c2nnnn2Cc2cccs2)N2CCN(c3ccccc3)CC2)cc1OC (centres undefined) | inconclusive [inhibitor, single point] | –
COc1ccc2cc3cc(C(=O)NCCC(C)C)oc3nc2c1 | inactive | –
Cc1nc(-c2ccc(S(=O)(=O)N3CCN(C4c5ccccc5-c5ccccc54)CC3)s2)cs1 | inactive | –
CCCCn1nc(C(=O)Nc2ccc3c(c2)OCO3)c2ccccc2c1=O | inconclusive [inhibitor, partial curve] | –
COc1ccc(C(CNC(=O)C(CCSC)NC(=O)c2ccccc2OC)N2CCCCC2)cc1 (centres undefined) | inactive | –
Cc1ccc(CN2CC(C(=O)Nc3ccncc3)CC2=O)cc1 (centres undefined) | inconclusive [inhibitor, single point] | –
CCOC(=O)c1sc(N)nc1C(F)(F)F | inactive | –
O=C(CNc1ccccc1F)Nc1cccc2ccccc12 | inactive | –
COc1ccccc1CN1CCN(Cc2cc(OC)c(OC)cc2OC)CC1 | inconclusive [inhibitor, single point] | –
Cc1cc(NC(=O)Cc2cccs2)no1 | inconclusive [inhibitor, single point] | –
CCC(=O)Nc1ccc(S(=O)(=O)NCc2ccco2)cc1 | inactive | –
COc1cc(/C=N/NC(=O)c2cc(C3CC3)[nH]n2)ccc1O | inactive | –
O=C1NC(=O)C(=Cc2ccc(-c3ccccc3[N+](=O)[O-])o2)C(=O)N1 | inconclusive [inhibitor, partial curve] | –
Cc1ccc(/C=N/N2CCN(Cc3cccc4ccccc34)CC2)o1 | inconclusive [inhibitor, partial curve] | –
C[C@H]1CCC/C=C/[C@@H]2C[C@H](O)C[C@H]2[C@H](O)[C@H](S(=O)c2ccc(O)cc2)CC(=O)O1 (some centres undefined) | inactive | –

SMILES | Potency | activity change, negative = inhibition
C=CCn1c(SCc2csc(C)n2)nc2sc3c(c2c1=O)CCCCC3 | inactive | –
CCc1ccc(C(=O)NNc2ccc(F)cc2)cc1 | inconclusive [inhibitor, single point] | –
Cc1cc2nc(C(C)(C)C)c(Cc3ccsc3)n2c(C)c1Br | inactive | –
O=c1sc(/C=N/Nc2ccccc2)c(Cl)n1Cc1ccccc1 | inactive | –
COc1ccc(NC(=O)Nc2ccc(F)c(F)c2)c(OC)c1 | inactive | –
CCCCN(CCCC)S(=O)(=O)c1ccc(N2CCCC2=O)c([N+](=O)[O-])c1 | inconclusive [inhibitor, partial curve] | –
COc1ccc(CN(C)C(=O)c2cccc(S(=O)(=O)N3CCN(c4ccccc4)CC3)c2)c(OC)c1OC | inconclusive [inhibitor, single point] | –
CN(C)c1ccc(N=Nc2ccccc2C(=O)OCC(=O)N2CCCCCC2)cc1 | active: 17.8 µM | –
COc1ccccc1N(C)S(=O)(=O)c1ccc(C(=O)Nc2cc(F)ccc2C)cc1 | inactive | –
Clc1ccccc1CN1CCN(c2ncccn2)CC1 | inconclusive [inhibitor, partial curve] | –
COc1ccc(OCC(O)CNCCOc2ccccc2OC)c(C(C)(C)C)c1 (centres undefined) | inconclusive [inhibitor, partial curve] | –
Cc1cccc(CCNC(=O)c2cc(S(=O)(=O)N3CCCC3)cn2C)c1 | inactive | –
CCN(CC)CCN(C(=O)c1cc2ccccc2cc1OC)c1nc2ccc(OC)cc2s1 | inconclusive [inhibitor, partial curve] | –
COc1ccccc1CC(=O)N1CCN(CCc2ccccc2)CC1 | inactive | –
COC(=O)c1ccc(CCc2cc(O)c(Br)cc2O)cc1 | inconclusive [inhibitor, partial curve, poor fit] | –
C=CCn1c(SCC(=O)c2cccs2)nc2sc(C)c(C)c2c1=O | inconclusive [inhibitor, single point] | –
COc1ccccc1NCc1nnc(-c2ccccc2)o1 | inactive | –
COc1ccc(N2CCN(CCCNC(=O)C(=O)c3c[nH]c4ccccc34)CC2)cc1 | inconclusive [inhibitor, single point] | –
O=[N+]([O-])c1ccc(/C=N/Nc2ccnc3cc(Cl)ccc23)o1 | inconclusive [inhibitor, single point] | –
O=C(O)COCC(=O)Nc1cc(C(F)(F)F)cc(C(F)(F)F)c1 | inactive | –
C/C(=N\NC(=O)COc1ccc(C(C)(C)C)cc1)c1cc2ccccc2o1 | inactive | –
O=[N+]([O-])c1cc(-c2ccc(C(=S)N3CCOCC3)o2)ccc1Cl | inconclusive [inhibitor, partial curve] | –
CNc1ccc(Br)cc(C(=O)/C=C/c2ccc3c(c2)OCO3)c1=O | inconclusive [inhibitor, single point] | –
O=C(NCC1=C(c2ccc3ccccc3c2)C[C@@H]2CC[C@H]1N2Cc1ccco1)c1ccc([N+](=O)[O-])cc1 | inconclusive [inhibitor, partial curve] | –
